44 compounds from paper PMC4336329 (PLoS ONE, 2015) can be followed below.

The structures appear in SMILES notation. The whole screen tested about 310,000 compounds, of which about 2,200 (0.71%) showed an effect of 50% or more. The effect is printed as a negative number. Some of the results follow.

The target in the assay is human ether-à-go-go-related gene (hERG) potassium channel (human, UniProt Q12809). In words: primary screen, population patch clamp on CHO cells stably expressing hERG.
Sequence of human ether-à-go-go-related gene (hERG) potassium channel (Q12809 whole entry, looked up): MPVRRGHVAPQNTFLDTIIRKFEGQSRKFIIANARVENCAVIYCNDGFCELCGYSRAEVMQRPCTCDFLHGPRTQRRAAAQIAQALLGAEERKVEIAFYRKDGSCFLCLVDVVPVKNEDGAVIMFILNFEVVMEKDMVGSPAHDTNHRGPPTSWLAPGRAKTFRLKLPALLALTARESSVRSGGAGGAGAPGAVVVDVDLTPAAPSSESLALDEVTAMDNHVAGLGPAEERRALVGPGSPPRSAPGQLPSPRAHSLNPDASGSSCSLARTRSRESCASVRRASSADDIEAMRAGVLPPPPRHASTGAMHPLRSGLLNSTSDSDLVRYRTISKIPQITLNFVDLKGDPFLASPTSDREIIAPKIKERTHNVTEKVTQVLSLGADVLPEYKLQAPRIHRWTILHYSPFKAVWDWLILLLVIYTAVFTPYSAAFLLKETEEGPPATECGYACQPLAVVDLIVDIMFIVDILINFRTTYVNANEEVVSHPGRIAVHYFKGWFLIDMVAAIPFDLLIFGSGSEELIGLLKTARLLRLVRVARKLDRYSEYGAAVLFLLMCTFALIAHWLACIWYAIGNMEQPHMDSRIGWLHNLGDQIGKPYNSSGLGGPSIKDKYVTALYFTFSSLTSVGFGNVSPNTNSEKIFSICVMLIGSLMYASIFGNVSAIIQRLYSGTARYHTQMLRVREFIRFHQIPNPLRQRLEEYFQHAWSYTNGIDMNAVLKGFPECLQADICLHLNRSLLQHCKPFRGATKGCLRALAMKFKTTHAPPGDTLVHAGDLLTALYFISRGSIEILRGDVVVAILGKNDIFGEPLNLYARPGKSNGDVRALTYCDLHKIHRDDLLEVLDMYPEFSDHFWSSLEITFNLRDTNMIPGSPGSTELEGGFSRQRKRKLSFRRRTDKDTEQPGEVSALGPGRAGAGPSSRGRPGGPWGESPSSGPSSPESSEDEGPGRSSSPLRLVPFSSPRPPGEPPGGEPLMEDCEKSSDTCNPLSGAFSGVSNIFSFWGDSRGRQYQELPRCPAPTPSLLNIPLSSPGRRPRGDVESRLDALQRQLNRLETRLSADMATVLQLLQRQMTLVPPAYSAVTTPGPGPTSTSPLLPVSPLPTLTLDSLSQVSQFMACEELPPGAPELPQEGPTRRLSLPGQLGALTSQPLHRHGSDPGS
Consider `CCOCCCNC(=O)c1cn(C)c2ccc(S(=O)(=O)N3CCCC3)cc2c1=O`, for which the “hERG current change (%, negative = inhibition) at 1uM” value is 16.7%. Consider `S=C(NCCCn1ccnc1)Nc1ccc(Cl)cc1Cl`, for which the “hERG current change (%, negative = inhibition) at 1uM” value was found to be 9.18%.

Consider `O=C(NC1CCCCC1)c1ccc(CNc2nc(=S)[nH]c3ccccc23)cc1`, for which the “hERG current change (%, negative = inhibition) at 1uM” value is 4.71%. In the case of `CC(C)c1ccc(OCC(=O)Nc2cccc3c2CCCC3)cc1`, the “hERG current change (%, negative = inhibition) at 1uM” value worked out at 5%. Consider `CS(=O)(=O)c1ccc(Cl)c(NC(=O)Cc2c(F)cccc2Cl)c1`, for which the “hERG current change (%, negative = inhibition) at 1uM” value was found to be 13.5%. Under `O=C(CSC1CCCCC1)Nc1nccs1` stands 3.01%; under `O=C1CC(=O)N(Cc2ccccc2)C(=S)N1`, 11.3%; under `CN1C(=O)SC(Nc2ccccc2C(=O)O)C1=O` (centres unmarked), 5.34%. For `CCOC(=O)c1cnn(-c2ccccc2)c1NC(=O)c1ccccc1`, the “hERG current change (%, negative = inhibition) at 1uM” value is listed as 5.31%. Consider `O=C(NCc1cccs1)c1ccc([N+](=O)[O-])cc1`, for which the “hERG current change (%, negative = inhibition) at 1uM” value was -0.22%. Take `COCc1cc(C)nc(SCC(=O)Nc2ccccc2N2CCOCC2)c1C#N`: the “hERG current change (%, negative = inhibition) at 1uM” value was determined as 8.19%. Regarding `O=C(N/N=C/c1ccc(-c2cccc(C(F)(F)F)c2)o1)c1ccccc1Br`, the “hERG current change (%, negative = inhibition) at 1uM” value turned out to be 6.99%. In the case of `COc1cc(-c2cc3nc4ccccc4n3c(N)c2C#N)cc(OC)c1OC`, the “hERG current change (%, negative = inhibition) at 1uM” value is listed as -1.48%.

On to `O=S(=O)(c1ccc(F)c(F)c1F)N1CCN(C(=S)NCc2ccccc2)CC1`, for which the “hERG current change (%, negative = inhibition) at 1uM” value was 10.3%. With `Cc1cc(C)cc(-n2c(=O)c3sccc3n(CC(=O)NCc3ccco3)c2=O)c1` the figure was -10.7%; with `O=C(c1ccco1)N1CCN(Cc2cc(=O)c(OCc3ccc([N+](=O)[O-])cc3)co2)CC1`, -29.4%.

In the case of `N#C/C(=C\c1ccc(-c2cccc([N+](=O)[O-])c2)o1)C(=O)N1CCOCC1`, the “hERG current change (%, negative = inhibition) at 1uM” value was determined as 8.18%. Take `O=C(c1ccco1)N1CCN(Cc2nnc(-c3ccccc3)o2)CC1`: the “hERG current change (%, negative = inhibition) at 1uM” value is recorded as -6.25%. `COc1cc(OC)cc(C(=O)NC2CCN(C(=O)N3c4ccccc4Sc4ccccc43)CC2)c1`: the “hERG current change (%, negative = inhibition) at 1uM” value came out at 12.9%. In the case of `CC1(C)CC(C(CC(=O)Nc2nccs2)c2ccccc2)CCO1` (centres unmarked), the “hERG current change (%, negative = inhibition) at 1uM” value is 13.4%.

In the case of `COc1ccccc1C(=O)Nc1ccc2c(c1)nc(CCNC(=O)c1ccccc1)n2C`, the “hERG current change (%, negative = inhibition) at 1uM” value came out at 11.4%.

On to `Cc1cc(=O)oc2c1ccc1ccccc12`, for which the “hERG current change (%, negative = inhibition) at 1uM” value was 13.6%.

As to `Cc1cc(NC(=O)CSc2nnc(-c3ccncc3)n2-c2ccccc2)no1`, the “hERG current change (%, negative = inhibition) at 1uM” value is 8.23%.

`O=C(CSc1nccn1-c1cccc(Cl)c1)NC1CCCC1`: the “hERG current change (%, negative = inhibition) at 1uM” value is on record as 5.11%. As to `COC(=O)C(Cc1ccccc1)NC(=S)NC(=O)c1ccccc1` (centres unmarked), the “hERG current change (%, negative = inhibition) at 1uM” value is listed as 13.5%.

As for `CC(=O)Nc1ccc(N=NN2CCOCC2)cc1`, the “hERG current change (%, negative = inhibition) at 1uM” value was found to be 11.1%. For `Cc1ccc(-c2ccc(C(=O)O)[nH]2)cc1`, the “hERG current change (%, negative = inhibition) at 1uM” value is reported as -14.4%. For the compound `CCCC(=O)Nc1nn(C)c2nc3cc(C)ccc3cc12`, the “hERG current change (%, negative = inhibition) at 1uM” value is 5.13%.

`Cc1c(N=C2NC(=O)/C(=C/c3ccc(O)cc3)S2)c(=O)n(-c2ccccc2)n1C`: the “hERG current change (%, negative = inhibition) at 1uM” value was determined as 7.25%. In the case of `CC1(C)NC(=O)N(CC(O)COc2ccccc2C(=O)N2CCCCC2)C1=O` (centres unmarked), the “hERG current change (%, negative = inhibition) at 1uM” value is recorded as 6.14%. Under `COCCNC(=O)C1CCN(S(=O)(=O)c2ccc3c(c2)OCCO3)CC1` stands 9.69%. Under `CC(=O)/C(=C(/O)c1ccccc1)c1nc2ccccc2[nH]1` stands 12.4%; under `COc1ccccc1-n1c(SCC(N)=O)nnc1-c1ccccc1`, 1.19%.

Regarding `COc1ccc(CC(=O)Nc2ccc(/C(C)=N/NC(=O)c3ccc(OC)cc3OC)cc2)cc1`, the “hERG current change (%, negative = inhibition) at 1uM” value amounted to 17.9%. `COc1ccc(C(=O)Cn2c(C)nc([N+](=O)[O-])c2Br)cc1`: the “hERG current change (%, negative = inhibition) at 1uM” value came out at 3.64%. For the compound `Nc1nc(SCC(=O)Nc2ccc([N+](=O)[O-])cc2)[nH]c(=O)c1NC(=O)c1ccc(Br)o1`, the “hERG current change (%, negative = inhibition) at 1uM” value was determined as 11.3%. With `C=CCNC(=S)Nc1ccc(C(N)=O)cc1` the figure was 15%. For `COc1cccc(C(=O)Nc2cccc(C(=O)NCC(C)C)c2)c1`, the “hERG current change (%, negative = inhibition) at 1uM” value is recorded as -10.4%. Under `CCOc1ccc(CN(C)CC(=O)Nc2ccc([N+](=O)[O-])cc2Cl)cc1` stands 10.6%. As to `COc1cccc(OC)c1OC(=O)c1cnccn1`, the “hERG current change (%, negative = inhibition) at 1uM” value is listed as 16.1%. Under `O=C(Nc1ccc(-n2cccn2)cc1)C1CCCCN1Cc1cccc2cccnc12` (centres unmarked) stands -1.72%; under `Cc1csc2nc(NC(=O)c3ccccc3)sc(=O)c12`, 8.93%. Regarding `O=c1[nH]c(=O)c2cn[nH]c2[nH]1`, the “hERG current change (%, negative = inhibition) at 1uM” value came to 6.29%. On to `O=C(NCCCn1ccnc1)/C(=C/c1ccco1)NC(=O)c1ccco1`, for which the “hERG current change (%, negative = inhibition) at 1uM” value was -10.2%.
